In PubChem BioAssay AID686978 (National Center for Advancing Translational Sciences (NCATS), 2013):
Screen size: about 420,000 compounds; about 64,000 (15%) were called active. The shares of active, inactive and inconclusive entries below differ from those in the screen. Calls come from the whole dose curve; as a rule, active = well fitted inhibition curve with a large enough effect; inconclusive = small, poorly fitted or top-dose-only effect; inactive = flat fitted curve, though single readings scatter. No potency is given beside an inconclusive call; the fits are too rough.

experiment: qHTS for Inhibitors of human tyrosyl-DNA phosphodiesterase 1 (TDP1): qHTS in cells in absence of CPT; conditions: DT40 Tdp1-/- hTDP1 cells, no CPT, ATP luminescence, 48 h; activity change, negative = growth inhibition: at 46.2 µM (top of the series) unless noted; note: nearly all actives have a fitted effect of over 55% in size
Procedure, shortened: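 Stably hTDP1-transfected Tdp1-null chicken DT40 cells were treated with library compounds minus camptothecin and grown for at least 48 hr at 37 °C, after which cellular ATP was quantified by luminescence.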
% is set by controls: 0 for no effect and ±100 for the full control effect; potency is the fitted concentration of half-maximal effect; tags give direction and shape of the fitted curve.

SMILES	activity change, negative = growth inhibition	Potency
COc1cc2c(cc1OC)C(C(=O)c1ccc(OC)c(OC)c1O)=NCC2	inactive: -24.4% [at 9.04 µM]	–
CCN(CC)S(=O)(=O)c1cc(C(=O)Nc2ccccn2)ccc1C	inactive: -24.1%	–
COc1ccc(-c2csc(NC(=O)COC(=O)c3ccco3)n2)cc1	–	inconclusive [inhibitor, single point]
CN=C1NC(C)(C)C2CCC(C)(CC2)S1	–	inconclusive [inhibitor, single point]
CCOc1ccc(-n2ccnc(SCC(=O)Nc3ccc(OC)cc3OC)c2=O)cc1	–	active: 23.1 µM
C/C(=N\NC(=S)NCCc1ccccc1)c1cccc(Br)c1	–	inconclusive [inhibitor, single point]
CCCCNc1nnc(SCC(=O)c2c[nH]c3ccccc23)s1	–	inconclusive [inhibitor, full curve, poor fit]
O=C(NC1CCCCC1)c1ccc2c(c1)N(Cc1ccccc1Cl)C(=O)c1ccccc1S2	–	inconclusive [inhibitor, full curve]
Cn1c(-c2ccsc2)c(-c2cccs2)c2cc(Br)ccc21	–	inconclusive [inhibitor, single point]
COCCNC(=O)CSc1n[nH]c(=O)n1CCc1ccccc1	inactive: -0.538%	–
CCOc1cc(-c2noc(-c3ccncc3)n2)cc(Br)c1OC	–	active: 16.4 µM
COc1ccc(C2/C=C\CN(Cc3ccco3)CC(=O)N2Cc2ccc(F)cc2)cc1 (stereo unspecified)	–	inconclusive [inhibitor, single point]
CCC(C)Nc1nc2c(c(=O)[nH]c(=O)n2C)n1CCOc1ccccc1 (stereo unspecified)	–	inconclusive [inhibitor, partial curve]
Cc1c(C(=O)NCc2cccc(C(F)(F)F)c2)sc(=O)n1Cc1cccc(F)c1	–	inconclusive [inhibitor, single point]
COc1cc(/C=N/N=C(/N)c2nonc2N)cc(Br)c1OCc1ccccc1C	–	inconclusive [inhibitor, single point]
COc1ccc(/C=N/NC(=O)CCC(=O)Nc2ccc(F)cc2)c(OC)c1	inactive: 6.76%	–
CCCCN(C=O)c1c(CC)nc2ccc(C(=O)N3CCN(C(=O)c4ccco4)CC3)cn12	inactive: -9.15%	–
COc1ccc(CNC(=O)CCc2c(C)c3cc4c(C)coc4c(C)c3oc2=O)cc1OC	–	inconclusive [inhibitor, single point]
Cc1nc(-c2ccc(Cl)cc2)sc1C1(C)CC(c2ccccc2F)=NO1 (stereo unspecified)	inactive: -11.9%	–
CC1CCCC(C)N1/N=C/c1ccc([N+](=O)[O-])cc1 (stereo unspecified)	–	inconclusive [inhibitor, partial curve]
COc1ccc([N+](=O)[O-])cc1NC(=O)COC(=O)C12CC3CC(CC(O)(C3)C1)C2	–	inconclusive [inhibitor, single point]
COc1ccc(Cl)cc1NC(=O)N1CCN(CCc2ccccc2)CC1	–	inconclusive [inhibitor, single point]
Cc1ccc(C)c(Sc2ccc(NC(=O)CCl)cc2)c1	–	active: 18.4 µM

SMILES	activity change, negative = growth inhibition	Potency
C=CC(=O)Nc1cccc(CN2C(=O)N(c3cc(OC)cc(OC)c3)Cc3cnc(NCCCCN(CC)CC)nc32)c1	–	inconclusive [inhibitor, single point]
CC(=O)NS(=O)(=O)c1ccc(N=c2ssc3c2-c2ccc(C)cc2NC3(C)C)cc1	–	inconclusive [inhibitor, single point]
CC(C)(C)NC(=O)c1cccc(NC(=O)CSc2ccccc2)c1	inactive: -24.4%	–
Cc1cccn2c(=O)c3cc(C(=O)N4COCC4(C)C)sc3nc12	–	inconclusive [inhibitor, partial curve]
COc1ccc(N2C(=O)c3ccccc3NC2c2ccc(OC)c(CN3CCOCC3)c2)cc1 (stereo unspecified)	inactive: -19.5%	–
CC(=O)c1cccc(NC(=O)CSc2n[nH]c(=O)n2C2CC2)c1	–	inconclusive [inhibitor, partial curve]
Cc1ccc(S(=O)(=O)CC(=O)N2CCN(c3nc4c(F)cccc4s3)CC2)cc1	–	active: 18.4 µM
Cc1ccc(CSc2nnc(-c3cnccn3)n2C)cc1	inactive: -21.9%	–
COc1c(O)ccc(/C=N/NC(=O)c2ccc3c(c2)OCCO3)c1[N+](=O)[O-]	inactive: 7.8%	–
O=C(OCc1ccccc1)N1C=CCC[C@@H]1c1c(Cl)cccc1Br	–	inconclusive [inhibitor, single point]
COc1cccc(OCc2nc3ccccc3c(=O)n2N)c1	inactive: -12.3%	–
Cc1ccccc1CN1C2=NCCN2c2ccccc21	–	inconclusive [inhibitor, single point]
Nc1ccccc1SCC(=O)Nc1nc(-c2ccccc2)cs1	–	inconclusive [inhibitor, single point]
CCN(C[C@H]1N[C@@](C)(C(=O)OC)[C@H]2C(=O)N(Cc3ccccc3)C(=O)[C@@H]12)C(=O)c1ccc(F)cc1	inactive: -7.38%	–
COc1ccc(Cl)cc1NC(=O)CSc1nnc(Cc2ccc(C)cc2)c(=O)[nH]1	–	inconclusive [inhibitor, single point]
CS(=O)(=O)Nc1cccc(C(=O)CC2(O)C(=O)Nc3ccc(Br)cc32)c1 (stereo unspecified)	–	active: 20.6 µM
COc1ccc(Cl)cc1C(Nc1cccnc1)c1ccc2cccnc2c1O (stereo unspecified)	–	inconclusive [inhibitor, single point]
COc1ccc(Cl)cc1NC(=O)C1CCCN(c2ncnc3c2nc2n3CCCCC2)C1 (stereo unspecified)	–	active: 8.2 µM
CCc1cc2c(=O)c(-c3nc4ccccc4n3C)c(C)oc2cc1OC(C)=O	–	inconclusive [inhibitor, full curve, poor fit]
Cn1c(CCC(=O)Nc2ccc(F)cc2)nc2cc(S(=O)(=O)N3CCOCC3)ccc21	–	inconclusive [inhibitor, single point]
COC(=O)c1ccc(COC(=O)c2cnccn2)cc1	inactive: -6.17%	–
O=C(NCc1ccco1)C(=O)c1cn(CC(=O)N2CCCCCC2)c2ccccc12	inactive: -8.99%	–
Cc1cccc(C)c1NC(=O)CNC(=O)CCCN1C(=O)c2cccc3cccc(c23)C1=O	–	inconclusive [inhibitor, single point]
